Source: the supplement of paper PMC12217912
The list shows a part of the results. The full chains were built here from the parent and the listed change. Values near 0.05 are background.

B1: TEV protease; numbered along this chain (parent)
chain: MGESLFKGPRDYNPISSSICHLTNESDGHTTSLYGIGFGPFIITNKHLFRRNNGTLVVQSLHGVFKVKDTTTLQQHLVDGRDMIIIRMPKDFPPFPQKLKFREPQREERICLVTTNFQTKSMSSMVSDTSCTFPSGDGIFWKHWIQTKDGQCGSPLVSTRDGFIVGIHSASNFTNTNNYFTSVPKNFMELLTNQEAQQWVSGWRLNADSVLWGGHKVFMVKPEEPFQPVKEATQL

Variants of: B1
Experiment: raw area under fraction-flipped curve 0-4 h after induction (AUC4h, not background-subtracted), DNA-recorder readout of cleavage of the substrate (dimensionless); higher = more cleavage of the substrate by the protease variant
Settings: temperature: 34 °C; time window: 0-4 h after rhamnose induction
Method: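 In vivo DNA recorder in E. coli TOP10(DE3) ΔrhaA at 34 °C. Each TEVp single-site mutant (parent TEVp 0) is paired with a single-site variant of the 7-mer TEVs (canonical ENLYFQ|S). The substrate sits between flexible linkers in a Bxb1-sfGFP-TEVs-SsrA fusion, so cleavage stabilises Bxb1 and speeds flipping of a recombination array, read by NGS. The value is the raw area under the fraction-flipped curve over 0-4 h after rhamnose induction (AUC4h), with ≥20 reads per time point. It is not background-subtracted; inactive controls average about 0.047.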
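Also: Bxb1 expression induced with 0.2% (w/v) L-rhamnose at OD600 near 0.5, cultures sampled hourly, flipped fraction per protease–substrate barcode pair counted by paired-end Illumina sequencing.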

| Variant | area with substrate ENLYFQA | area with substrate ENLYFQC | area with substrate ENLYFQF | area with substrate ENLYFQG | area with substrate ENLYFQH | area with substrate ENLYFQI | area with substrate ENLYFQK | area with substrate ENLYFQL | area with substrate ENLYFQM | area with substrate ENLYFQN | area with substrate ENLYFQP | area with substrate ENLYFQR | area with substrate ENLYFQS | area with substrate ENLYFQT | area with substrate ENLYFQV | area with substrate ENLYFQW | area with substrate ENLYFQY | area with substrate ENLYFQE | area with substrate ENLYFQD | area with substrate ENLYFQQ |
| --- | --- | --- | --- | --- | --- | --- | --- | --- | --- | --- | --- | --- | --- | --- | --- | --- | --- | --- | --- | --- |
| MGESLFKGPRDYLPISSSICHLTNESDGHTTSLYGIGFGPFIITNKHLFRRNNGTLVVQSLHGVFKVKDTTTLQQHLVDGRDMIIIRMPKDFPPFPQKLKFREPQREERICLVTTNFQTKSMSSMVSDTSCTFPSGDGIFWKHWIQTKDGQCGSPLVSTRDGFIVGIHSASNFTNTNNYFTSVPKNFMELLTNQEAQQWVSGWRLNADSVLWGGHKVFMVKPEEPFQPVKEATQL [N13L] | 0.113 | 0.13 | 0.0925 | 0.109 | 0.0892 | 0.0461 | 0.0697 | 0.0576 | 0.106 | 0.0807 | 0.0703 | 0.0588 | 0.115 | 0.0704 | 0.0584 | 0.0611 | 0.09 |  |  |  |
| MGESLFKGPRDYPPISSSICHLTNESDGHTTSLYGIGFGPFIITNKHLFRRNNGTLVVQSLHGVFKVKDTTTLQQHLVDGRDMIIIRMPKDFPPFPQKLKFREPQREERICLVTTNFQTKSMSSMVSDTSCTFPSGDGIFWKHWIQTKDGQCGSPLVSTRDGFIVGIHSASNFTNTNNYFTSVPKNFMELLTNQEAQQWVSGWRLNADSVLWGGHKVFMVKPEEPFQPVKEATQL [N13P] | 0.0885 |  | 0.0794 | 0.113 | 0.0785 | 0.0673 | 0.0585 | 0.0622 | 0.0916 | 0.0737 |  | 0.0587 | 0.0971 | 0.0501 | 0.0656 | 0.0699 | 0.0712 | 0.0656 |  |  |
| MGESLFKGPRDYNAISSSICHLTNESDGHTTSLYGIGFGPFIITNKHLFRRNNGTLVVQSLHGVFKVKDTTTLQQHLVDGRDMIIIRMPKDFPPFPQKLKFREPQREERICLVTTNFQTKSMSSMVSDTSCTFPSGDGIFWKHWIQTKDGQCGSPLVSTRDGFIVGIHSASNFTNTNNYFTSVPKNFMELLTNQEAQQWVSGWRLNADSVLWGGHKVFMVKPEEPFQPVKEATQL [P14A] | 0.0973 | 0.129 |  |  |  | 0.0601 | 0.06 | 0.0913 | 0.0861 | 0.0784 | 0.0553 | 0.0685 | 0.114 | 0.0597 | 0.0511 |  | 0.0905 |  | 0.0836 | 0.0797 |
| MGESLFKGPRDYNMISSSICHLTNESDGHTTSLYGIGFGPFIITNKHLFRRNNGTLVVQSLHGVFKVKDTTTLQQHLVDGRDMIIIRMPKDFPPFPQKLKFREPQREERICLVTTNFQTKSMSSMVSDTSCTFPSGDGIFWKHWIQTKDGQCGSPLVSTRDGFIVGIHSASNFTNTNNYFTSVPKNFMELLTNQEAQQWVSGWRLNADSVLWGGHKVFMVKPEEPFQPVKEATQL [P14M] | 0.0978 | 0.112 | 0.0718 | 0.11 | 0.0805 | 0.0528 | 0.0583 | 0.0612 | 0.0821 | 0.0349 | 0.0549 | 0.0548 | 0.0966 | 0.0702 |  |  | 0.0844 |  | 0.0997 |  |
| MGESLFKGPRDYNPESSSICHLTNESDGHTTSLYGIGFGPFIITNKHLFRRNNGTLVVQSLHGVFKVKDTTTLQQHLVDGRDMIIIRMPKDFPPFPQKLKFREPQREERICLVTTNFQTKSMSSMVSDTSCTFPSGDGIFWKHWIQTKDGQCGSPLVSTRDGFIVGIHSASNFTNTNNYFTSVPKNFMELLTNQEAQQWVSGWRLNADSVLWGGHKVFMVKPEEPFQPVKEATQL [I15E] | 0.0647 | 0.0843 | 0.074 | 0.0882 | 0.0711 | 0.0504 | 0.0506 | 0.0607 | 0.0732 |  | 0.0501 | 0.053 | 0.0775 | 0.0645 |  |  | 0.062 | 0.0578 | 0.0564 | 0.0496 |
| MGESLFKGPRDYNPKSSSICHLTNESDGHTTSLYGIGFGPFIITNKHLFRRNNGTLVVQSLHGVFKVKDTTTLQQHLVDGRDMIIIRMPKDFPPFPQKLKFREPQREERICLVTTNFQTKSMSSMVSDTSCTFPSGDGIFWKHWIQTKDGQCGSPLVSTRDGFIVGIHSASNFTNTNNYFTSVPKNFMELLTNQEAQQWVSGWRLNADSVLWGGHKVFMVKPEEPFQPVKEATQL [I15K] | 0.0712 | 0.0798 |  | 0.0669 | 0.0809 | 0.0676 | 0.057 | 0.0446 | 0.0685 | 0.0663 |  | 0.0566 | 0.0673 | 0.0423 |  | 0.0433 | 0.0578 |  | 0.0553 |  |
| MGESLFKGPRDYNPQSSSICHLTNESDGHTTSLYGIGFGPFIITNKHLFRRNNGTLVVQSLHGVFKVKDTTTLQQHLVDGRDMIIIRMPKDFPPFPQKLKFREPQREERICLVTTNFQTKSMSSMVSDTSCTFPSGDGIFWKHWIQTKDGQCGSPLVSTRDGFIVGIHSASNFTNTNNYFTSVPKNFMELLTNQEAQQWVSGWRLNADSVLWGGHKVFMVKPEEPFQPVKEATQL [I15Q] | 0.0762 | 0.1 | 0.0532 | 0.0954 | 0.0808 | 0.0592 | 0.056 | 0.0607 | 0.084 | 0.0621 | 0.0472 | 0.0518 | 0.0957 | 0.0495 | 0.0368 | 0.0568 | 0.096 |  | 0.0805 |  |
| MGESLFKGPRDYNPISSSKCHLTNESDGHTTSLYGIGFGPFIITNKHLFRRNNGTLVVQSLHGVFKVKDTTTLQQHLVDGRDMIIIRMPKDFPPFPQKLKFREPQREERICLVTTNFQTKSMSSMVSDTSCTFPSGDGIFWKHWIQTKDGQCGSPLVSTRDGFIVGIHSASNFTNTNNYFTSVPKNFMELLTNQEAQQWVSGWRLNADSVLWGGHKVFMVKPEEPFQPVKEATQL [I19K] | 0.0824 | 0.0796 |  |  |  | 0.0608 |  | 0.0434 | 0.0587 | 0.0439 | 0.0349 | 0.0681 | 0.0707 | 0.0364 | 0.0572 | 0.0479 |  |  |  | 0.0491 |
